Reference: PubChem BioAssay (NCATS)
This list was built around the results that the source calls inconclusive (neither active nor inactive); the mix of calls is not that of the screen. For part of these data: Where the call is inconclusive, the potency comes from a doubtful curve fit. The source made the active and inactive calls. Unless noted, calls follow the shape of the dose curve; as a rule, active = well fitted curve in the direction sought with a large enough effect; inconclusive = small, poorly fitted or top-dose-only effect, or another doubt; inactive = no such curve, though single readings can be large; an effect the other way counts as inactive or inconclusive.

Columns and labels:
[1] = Primary qHTS for inhibitors of nuclear receptor binding SET domain protein 2 (NSD2) in an isogenic RCH-ACV NSD2 p.E1099K mutant (9B) (AID 1645876); also: nearly all actives have a fitted effect of over 70% in size
[2] = Primary qHTS for inhibitors of nuclear receptor binding SET domain protein 2 (NSD2) in an RCH-ACV wild type WT cells (2C) (AID 1645877); conditions: activity change, negative = cell killing: at 44.9 µM (top of the series); also: nearly all actives have a fitted effect of over 70% in size
HEK293 = assay: Cytotoxic Profiling of Annotated Libraries Using Quantitative High-Throughput Screening (AID 1296008); conditions: Five cell lines viability, CellTiter-Glo ATP luminescence, 48-72 h; max response: hits give low values; also: nearly all actives have a fitted effect of over 60% in size; as to max response: % is scaled to controls: 0 for no effect and ±100 for the full control effect
How it was run: (§1)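 Cytotoxicity was measured as CellTiter-Glo ATP luminescence, read after 10 min at room temperature. Compound treatment of the cells lasted 48 or 72 hr at 37 degrees Celsius in a qHTS format.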

KB-3-1 = assay: as above; conditions: Five cell lines viability, CellTiter-Glo ATP luminescence, 48-72 h; max response: hits give low values
How it was run: as §1

HeLa = assay: Primary qHTS to identify gynecologic anti-cancer compounds using libraries of approved drugs and bioactive compounds (AID 1345084); conditions: Gynecologic cancer cell panel viability, ATPlite luminescence, 48 h; series mostly up to 57.5 µM; also: nearly all actives have a fitted effect of over 55% in size; as to activity change, negative = cytotoxicity: % is scaled to controls: 0 for no effect and ±100 for the full control effect
How it was run: (§2)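 Cells, 1,000 per well, plated 16 h, then exposed 48 h at 37 C to compounds. Viability by ATPlite luminescence after 15 min at room temperature.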

Hek293T = assay: as above; conditions: Gynecologic cancer cell panel viability, ATPlite luminescence, 48 h, control line for the selectivity index; series mostly up to 57.5 µM
How it was run: as §2

Tov-21-G = assay: as above; conditions: Gynecologic cancer cell panel viability, ATPlite luminescence, 48 h; activity change, negative = cytotoxicity: at 57.5 µM (top of the series)
How it was run: as §2

[3] = P-glycoprotein substrates identified in KB-8-5-11 adenocarcinoma cell line, qHTS therapeutic library screen (AID 1346987); also: nearly all actives have a fitted effect of over 65% in size
How it was run: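 Steps: plate 500 KB-8-5-11 cells/well in DMEM + 10% FCS (colchicine removed); pin compounds in dose-response; incubate 72 h, 37 degree C, 5% CO2; add CellTiter-Glo, 5 min; read luminescence.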

[4] = tested on: Zika virus NS2B-NS3 protease (unlinked complex); assay: Primary screen GU Rhodamine qHTS for Zika virus inhibitors: Unlinked NS2B-NS3 protease assay (AID 1347159); also: nearly all actives have a fitted effect of over 60% in size
How it was run: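 Percent inhibition derives from the 15-min fluorescence change (ex 480, em 540 nm), normalized to no-enzyme and no-inhibitor wells. Reactions contained 25 nM NS2B-NS3 complex and 1.5 microM substrate in 10 mM Tris-HCl pH 8.0.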

CASKI = assay: Primary qHTS to identify gynecologic anti-cancer compounds using libraries of approved drugs and bioactive compounds (AID 1345084); conditions: Gynecologic cancer cell panel viability, ATPlite luminescence, 48 h; activity change, negative = cytotoxicity: at 57.5 µM (top of the series); also: nearly all actives have a fitted effect of over 55% in size; as to activity change, negative = cytotoxicity: % is scaled to controls: 0 for no effect and ±100 for the full control effect
How it was run: as §2

Tov112D = assay: as above; conditions: Gynecologic cancer cell panel viability, ATPlite luminescence, 48 h; activity change, negative = cytotoxicity: at 57.5 µM (top of the series)
How it was run: as §2

SKOV3 = assay: as above; conditions: Gynecologic cancer cell panel viability, ATPlite luminescence, 48 h; series mostly up to 57.5 µM
How it was run: as §2

[5] = biological target: Cytochrome P450 2D6 (Homo sapiens) (UniProt P10635); assay: Cytochrome P450 family 2 subfamily D member 6 (CYP2D6) small molecule antagonists: luciferase biochemical (cell-free) qHTS assay (AID 1645840; active = well fitted curve in the direction sought with a large enough effect in the repeat runs; inconclusive = weak or mixed curves; inactive = no such curve, though single readings can be large; an effect the other way counts as inactive or inconclusive; also: nearly all actives have a fitted effect of over 55% in size)
How it was run: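 P450-Glo luminescent screen: recombinant CYP2D6 enzyme–proluciferin substrate mix preincubated with compound 10 min at room temperature, then NADPH regeneration added for 1 h at room temperature. Detection reagent added for 20 min; luciferin light read as relative luminescence units.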

Es-2 = assay: Primary qHTS to identify gynecologic anti-cancer compounds using libraries of approved drugs and bioactive compounds (AID 1345084); conditions: Gynecologic cancer cell panel viability, ATPlite luminescence, 48 h; series mostly up to 57.5 µM; also: nearly all actives have a fitted effect of over 55% in size; as to activity change, negative = cytotoxicity: % is scaled to controls: 0 for no effect and ±100 for the full control effect
How it was run: as §2

OV90 = assay: as above; conditions: Gynecologic cancer cell panel viability, ATPlite luminescence, 48 h; series mostly up to 57.5 µM
How it was run: as §2

CAOV3 = assay: as above; conditions: Gynecologic cancer cell panel viability, ATPlite luminescence, 48 h; series mostly up to 57.5 µM
How it was run: as §2

PA-1 = assay: as above; conditions: Gynecologic cancer cell panel viability, ATPlite luminescence, 48 h; series mostly up to 57.5 µM
How it was run: as §2

JEG-3 = assay: as above; conditions: Gynecologic cancer cell panel viability, ATPlite luminescence, 48 h; series mostly up to 57.5 µM
How it was run: as §2
Potency is read from the fitted curve at half-maximal effect; tags tell the direction and shape of the fitted curve.

Chain of UniProt P10635 (P10635 whole entry, looked up): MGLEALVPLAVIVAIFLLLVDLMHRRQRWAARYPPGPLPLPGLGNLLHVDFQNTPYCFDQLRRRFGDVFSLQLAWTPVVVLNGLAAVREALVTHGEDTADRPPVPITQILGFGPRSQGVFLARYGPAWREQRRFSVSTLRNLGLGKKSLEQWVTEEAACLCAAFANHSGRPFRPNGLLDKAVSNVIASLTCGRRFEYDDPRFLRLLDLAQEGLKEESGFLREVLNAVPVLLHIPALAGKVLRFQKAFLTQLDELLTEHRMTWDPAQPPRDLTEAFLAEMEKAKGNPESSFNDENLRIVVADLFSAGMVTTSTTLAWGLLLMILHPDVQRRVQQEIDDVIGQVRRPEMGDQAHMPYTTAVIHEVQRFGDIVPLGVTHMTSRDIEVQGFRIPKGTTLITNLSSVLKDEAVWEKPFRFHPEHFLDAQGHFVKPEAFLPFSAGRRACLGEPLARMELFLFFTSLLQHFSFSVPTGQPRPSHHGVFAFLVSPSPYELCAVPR

COc1ccc(S(=O)(=O)N2c3ccc(Cl)cc3[C@@](O)(c3ccccc3Cl)[C@H]2C(=O)N2CCC[C@@H]2C(N)=O)cc1OC
inactive: max response (KB-3-1) -5.62% | Potency (HeLa) | Potency (Hek293T) | Potency (Tov-21-G)
inconclusive: Potency [1] 21.1 µM [inhibitor, partial curve] | Potency [2] 26.6 µM [inhibitor, single point] | Potency (HEK293) 18.8 µM [inhibitor, partial curve, poor fit]

COc1ccc(S(=O)(=O)Nc2c(C)cc(C)cc2C)cc1
inconclusive: Potency [3] 20.6 µM [inhibitor, single point] | Potency [1] 23 µM [inhibitor, single point] | Potency [2] 23 µM [inhibitor, single point] | Potency (HEK293) 29.1 µM [inhibitor, single point] | Potency (KB-3-1) 23.1 µM [inhibitor, single point] | Potency (Tov112D) 20 µM [cytotoxic, partial curve, poor fit]
inactive: Potency [4] | Potency (CASKI)

CC[N+]1(C/C2=C/CCCCCC2)CCC(NC(=O)C2c3cc(Cl)ccc3Oc3ccc(Cl)cc32)CC1 (stereo not given)
inactive: Potency (CASKI) | Potency (Hek293T)
inconclusive: Potency (HEK293) 18.4 µM [inhibitor, single point] | Potency (KB-3-1) 23.1 µM [inhibitor, single point]

CC(C)=C[C@@H]1[C@H](CO[C@@H]2O[C@H](CO)[C@@H](O)[C@H](O)[C@H]2O)C1(C)C
inconclusive: Potency [1] 11.3 µM [inhibitor, single point] | Potency [2] 11.3 µM [inhibitor, single point] | Potency (HEK293) 18 µM [inhibitor, single point] | Potency (KB-3-1) 20.2 µM [inhibitor, single point] | Potency (SKOV3) 0.316 µM [rising, full curve]
inactive: Potency (Hek293T)

CC(C)c1ccc(NC(=O)c2cccs2)c(-c2nc3ccccc3[nH]c2=O)c1
active: Potency [5] 13.5 µM | Potency [2] 16.3 µM
inconclusive: Potency [3] 18.4 µM [inhibitor, single point] | Potency [4] 35.5 µM [inhibitor, single point] | Potency [1] 20.5 µM [inhibitor, single point] | Potency (HEK293) 29.1 µM [inhibitor, single point] | Potency (KB-3-1) 16.4 µM [inhibitor, single point] | Potency (CASKI) 39.8 µM [cytotoxic, partial curve, poor fit] | Potency (SKOV3) 11.2 µM [cytotoxic, partial curve, poor fit]

CCCCCCCCCCCCOS(=O)(=O)O
inactive: Potency [1] | outcome (HEK293) | max response (KB-3-1) 16.2% | Potency (Es-2)

C=C1/C(=C/C=C2\CCC[C@]3(C)[C@@H]([C@H](C)/C=C/[C@@H](C)C(C)C)CC[C@@H]23)C[C@@H](O)C[C@@H]1O
inconclusive: Potency [3] 29.1 µM [inhibitor, single point] | Potency [1] 29 µM [inhibitor, single point] | Potency (HEK293) 29.1 µM [inhibitor, single point] | Potency (KB-3-1) 20.6 µM [inhibitor, single point]
active: Potency [4] 31.6 µM | Potency [2] 14.5 µM
inactive: Potency (Es-2) | Potency (OV90)

CC/C(C)=C/C(=O)OC1C(OC2(C)CCC3C(C4C(C)CCC42)C3(C)C)OC(C)C(O)C1O (stereo not given)
inconclusive: Potency [1] 7.96 µM [inhibitor, single point] | Potency [2] 7.96 µM [inhibitor, single point] | Potency (HEK293) 14.2 µM [inhibitor, single point] | Potency (CAOV3) 3.98 µM [rising, single point]
inactive: outcome (KB-3-1)

O=C(NCCCNc1nc(Nc2cccc(CN3CCOCC3)c2)ncc1C1CC1)C1CCC1
inconclusive: Potency (HEK293) 29.1 µM [inhibitor, single point] | Potency (HeLa) 7.94 µM [cytotoxic, partial curve, poor fit] | Potency (PA-1) 8.91 µM [cytotoxic, full curve] | Potency (SKOV3) 20 µM [cytotoxic, partial curve, poor fit]
active: Potency (KB-3-1) 20.6 µM | Potency (CAOV3) 11.2 µM | Potency (Tov-21-G) 15.8 µM

COC(=O)c1cc(Br)cnc1N1CCC(NC2CCCCC2)C(O)C1 (stereo not given)
inactive: Potency (Es-2) | Potency (HeLa)
inconclusive: Potency [3] 18.4 µM [inhibitor, single point] | Potency [4] 89.1 µM [inhibitor, single point] | Potency [2] 20.5 µM [inhibitor, partial curve, poor fit] | Potency (HEK293) 29.1 µM [inhibitor, single point] | Potency (KB-3-1) 20.6 µM [inhibitor, single point] | Potency (SKOV3) 8.91 µM [cytotoxic, partial curve, poor fit]

CCn1c(-c2nonc2N)nc2c(C#CCO)ncc(OCCCN)c21
inconclusive: Potency [1] 5.78 µM [inhibitor, partial curve] | Potency (KB-3-1) 29.1 µM [inhibitor, single point] | Potency (CAOV3) 28.2 µM [cytotoxic, partial curve, poor fit] | Potency (Hek293T) 7.94 µM [cytotoxic, full curve] | Potency (JEG-3) 3.98 µM [rising, single point] | Potency (OV90) 3.16 µM [cytotoxic, full curve] | Potency (PA-1) 1 µM [cytotoxic, full curve, poor fit] | Potency (SKOV3) 20 µM [cytotoxic, single point] | Potency (Tov112D) 1.12 µM [rising, partial curve, poor fit]
active: Potency (HEK293) 7.31 µM

NC1(c2ccc(NC(=O)c3ccnc(-c4cc(C(=O)O)ccn4)c3)cc2)CC1
inconclusive: Potency [4] 100 µM [inhibitor, single point] | Potency (PA-1) 1.58 µM [cytotoxic, single point]
inactive: max response (HEK293) -8.28% | outcome (KB-3-1) | Potency (Es-2) | Potency (JEG-3) | Potency (SKOV3)

C/C(=C/C=C\C=C\Cc1cnco1)[C@@H](O)C(C)(C)C(N)=O
inconclusive: Potency (HEK293) 29.1 µM [inhibitor, single point] | Potency (KB-3-1) 18.4 µM [inhibitor, partial curve, poor fit] | Potency (SKOV3) 39.8 µM [rising, single point]
inactive: Potency (CAOV3) | Potency (HeLa) | Potency (Tov112D)

CN(C)C(CCOc1cccc2ccccc12)c1ccccc1 (stereo not given)
inactive: Potency [4] | Potency (CASKI) | Potency (PA-1)
inconclusive: Potency [3] 20.6 µM [inhibitor, single point] | Potency [1] 16.3 µM [inhibitor, partial curve, poor fit] | Potency [2] 18.3 µM [inhibitor, partial curve, poor fit] | Potency (HEK293) 20.6 µM [inhibitor, single point] | Potency (KB-3-1) 29.1 µM [inhibitor, single point] | Potency (OV90) 39.8 µM [cytotoxic, single point] | Potency (SKOV3) 1.78 µM [cytotoxic, partial curve, poor fit]

CC(=O)OC(C)(C)/C=C/C(=O)C(C)(O)C1C(O)CC2(C)C3CC=C(C(C)(C)C(=O)O)C(CC(=O)O)C3(C)C(=O)CC12C (stereo not given)
inactive: max response (HEK293) -1.12% | Potency (Tov112D)
inconclusive: Potency [1] 8.58 µM [inhibitor, single point] | Potency [2] 6.82 µM [inhibitor, single point] | Potency (KB-3-1) 6.11 µM [inhibitor, single point] | Potency (CAOV3) 12.6 µM [cytotoxic, single point] | Potency (SKOV3) 12.6 µM [cytotoxic, single point]

CC(C)=CCC[C@](C)(O[C@@H]1O[C@H](CO[C@@H]2O[C@H](CO)[C@@H](O)[C@H](O)[C@H]2O)[C@@H](O)[C@H](O)[C@H]1O)C1CC[C@]2(C)[C@@H]1[C@H](O)CC1[C@@]3(C)CC[C@H](O[C@@H]4O[C@H](CO)[C@@H](O)[C@H](O)[C@H]4O[C@@H]4O[C@H](CO)[C@@H](O)[C@H](O)[C@H]4O)C(C)(C)[C@@H]3CC[C@]12C (stereo not given in full)
inactive: activity change, negative = cell killing [2] -25.5% [at 9.23 µM] | max response (HEK293) 0.0713% | max response (KB-3-1) -1.36% | activity change, negative = cytotoxicity (CAOV3) 10.1% [at 11.6 µM] | activity change, negative = cytotoxicity (OV90) 2.46% [at 11.6 µM]
inconclusive: Potency (SKOV3) 3.98 µM [rising, single point]

CC(C)(O)c1ccn2c(-c3ccc(F)c(-c4ccc(F)cc4C#N)c3)cnc2c1F
inconclusive: Potency [3] 23.1 µM [inhibitor, single point] | Potency [1] 25.8 µM [inhibitor, single point] | Potency [2] 18.3 µM [inhibitor, single point] | Potency (HEK293) 18.4 µM [inhibitor, single point] | Potency (KB-3-1) 29.1 µM [inhibitor, partial curve, poor fit] | Potency (PA-1) 3.16 µM [rising, single point]
inactive: Potency (CAOV3) | Potency (Hek293T)
